In a collection of fitness landscapes (doi:10.1038/s41467-024-54723-y):
In all, about 18,000 sequences were measured (“TetR repression strength (sort-seq, GFP reporter)”: median about 0.23, highest 2% from about 0.68 on). The list shows a part of the results.

target: TetR (class B, Tn10) (UniProt P04483); assay: TetR repression strength (sort-seq, GFP reporter) (relative to tetO2 = 1); higher = stronger repression; conditions: E. coli
Method in brief: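 E. coli SIG10-MAX carried a low-copy plasmid library with eight randomized operator positions between a constitutive promoter and sfGFP, with TetR constitutively expressed. Cells grew 5 h at 37 °C in LB with 50 µg/mL chloramphenicol, then 10^6 cells were FACS-sorted into 13 fluorescence bins, each Illumina-sequenced. Repression strength is the top bin index plus one minus the read-weighted mean bin, divided by the wild-type operator value. Three independent transformations; variants with ≥30 reads in all replicates and CV ≤0.5 were averaged.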

Sequence of UniProt P04483 (P04483 whole entry): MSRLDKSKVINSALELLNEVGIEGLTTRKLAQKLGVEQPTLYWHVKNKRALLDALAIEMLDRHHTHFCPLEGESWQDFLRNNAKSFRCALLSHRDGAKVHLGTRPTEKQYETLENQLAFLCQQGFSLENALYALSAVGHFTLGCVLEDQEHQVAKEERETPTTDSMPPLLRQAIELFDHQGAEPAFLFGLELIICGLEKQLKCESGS

Going from TCCCGCGGAGTATTGGAGA to TCCCCGGTAGTTTGAGAGA, the TetR repression strength rises from 0.191 to 0.302.

First: TCCCGGCCAGTCGGTGAGA
Second: TCCCATTAAGTCGGAGAGA
The TetR repression strength of the first is lower: 0.269 for the first, 0.38 for the second.

Going from TCCCGCTAAGTTCGGGAGA to TCCCACTCAGTCCGGGAGA, the TetR repression strength falls from 0.246 to 0.204.

Compared with TCCCGACCAGTAAGAGAGA, TCCCGATTAGTTTTCGAGA is higher in TetR repression strength: 0.138 for the first, 0.245 for the second.

Compared with TCCCAGCGAGTGGAGGAGA, TCCCTTGGAGTCGTTGAGA is higher in TetR repression strength: 0.172 for the first, 0.304 for the second.

Going from TCCCATATAGTAAGCGAGA to TCCCAGCCAGTTCACGAGA, the TetR repression strength rises from 0.207 to 0.281.

Going from TCCCGGGAAGTTCGCGAGA to TCCCGTAAAGTTTGAGAGA, the TetR repression strength rises from 0.104 to 0.298.

Going from TCCCTTGTAGTATCGGAGA to TCCCTCTCAGTTGAAGAGA, the TetR repression strength falls from 0.257 to 0.18.

First: TCCCGCCAAGTAAAAGAGA
Second: TCCCCATAAGTGTTTGAGA
The TetR repression strength of the first is higher: 0.298 for the first, 0.242 for the second.

First: TCCCTACGAGTTTACGAGA
Second: TCCCCACTAGTCTTTGAGA
The TetR repression strength of the first is lower: 0.0249 for the first, 0.313 for the second.

Going from TCCCCACCAGTGCGGGAGA to TCCCGGACAGTCTCAGAGA, the TetR repression strength falls from 0.251 to 0.177.

Going from TCCCATTAAGTTCACGAGA to TCCCCTATAGTACTGGAGA, the TetR repression strength rises from 0.242 to 0.25.

First: TCCCGGTCAGTTGACGAGA
Second: TCCCGCTAAGTTATGGAGA
The TetR repression strength of the first is lower: 0.173 for the first, 0.266 for the second.

Going from TCCCCACTAGTTGAGGAGA to TCCCGCCGAGTGGTGGAGA, the TetR repression strength falls from 0.252 to 0.0812.

Going from TCCCCAAAAGTTAGAGAGA to TCCCAGCAAGTGGAGGAGA, the TetR repression strength rises from 0.113 to 0.194.

First: TCCCGTTTAGTTGTGGAGA
Second: TCCCCTTAAGTGTGAGAGA
The TetR repression strength of the first is lower: 0.0565 for the first, 0.179 for the second.

First: TCCCGGCGAGTGTCGGAGA
Second: TCCCTCGGAGTATGAGAGA
The TetR repression strength of the first is lower: 0.211 for the first, 0.305 for the second.

First: TCCCCTGTAGTTCAGGAGA
Second: TCCCGGAGAGTTAAGGAGA
The TetR repression strength of the first is higher: 0.293 for the first, 0.254 for the second.

Going from TCCCATGCAGTAAGTGAGA to TCCCTTTGAGTGTAGGAGA, the TetR repression strength rises from 0.178 to 0.251.

Compared with TCCCGCCTAGTCGAAGAGA, TCCCGAAGAGTGTTGGAGA is lower in TetR repression strength: 0.29 for the first, 0.268 for the second.

First: TCCCGTGCAGTCTGTGAGA
Second: TCCCGGTTAGTGGCGGAGA
The TetR repression strength of the first is lower: 0.0631 for the first, 0.337 for the second.

Compared with TCCCTTAGAGTAAGAGAGA, TCCCAAATAGTGGTGGAGA is higher in TetR repression strength: 0.0395 for the first, 0.335 for the second.

First: TCCCCGGAAGTAGTGGAGA
Second: TCCCCGACAGTGAAAGAGA
The TetR repression strength of the first is lower: 0.0942 for the first, 0.348 for the second.

First: TCCCACTAAGTAGTGGAGA
Second: TCCCATATAGTTGATGAGA
The TetR repression strength of the first is higher: 0.237 for the first, 0.148 for the second.

First: TCCCTTTGAGTGCTTGAGA
Second: TCCCATGCAGTAGTTGAGA
The TetR repression strength of the first is lower: 0.114 for the first, 0.207 for the second.

Going from TCCCGCTGAGTTCCCGAGA to TCCCAGGGAGTCGATGAGA, the TetR repression strength falls from 0.217 to 0.103.

Compared with TCCCCATTAGTTCGAGAGA, TCCCCCAAAGTAGTTGAGA is higher in TetR repression strength: 0.287 for the first, 0.29 for the second.

First: TCCCAATGAGTACCTGAGA
Second: TCCCACGCAGTCGTGGAGA
The TetR repression strength of the first is lower: 0.18 for the first, 0.349 for the second.

Compared with TCCCAGCCAGTTCCTGAGA, TCCCTAGTAGTGTACGAGA is lower in TetR repression strength: 0.225 for the first, 0.0432 for the second.

Compared with TCCCACATAGTGTCGGAGA, TCCCGCACAGTGATTGAGA is higher in TetR repression strength: 0.0437 for the first, 0.42 for the second.

Compared with TCCCCGATAGTGATTGAGA, TCCCCGGCAGTACAGGAGA is lower in TetR repression strength: 0.47 for the first, 0.235 for the second.

Going from TCCCACACAGTCGGGGAGA to TCCCGCTTAGTAAGGGAGA, the TetR repression strength rises from 0.191 to 0.271.

First: TCCCACATAGTGCAAGAGA
Second: TCCCGAGGAGTGTTGGAGA
The TetR repression strength of the first is higher: 0.368 for the first, 0.271 for the second.

First: TCCCGCGCAGTCTTAGAGA
Second: TCCCCGTCAGTTTGCGAGA
The TetR repression strength of the first is lower: 0.28 for the first, 0.741 for the second.

First: TCCCCCGCAGTGTGGGAGA
Second: TCCCGATCAGTGAAAGAGA
The TetR repression strength of the first is lower: 0.15 for the first, 0.657 for the second.

First: TCCCGCAAAGTTGTCGAGA
Second: TCCCGTGGAGTTCGAGAGA
The TetR repression strength of the first is higher: 0.48 for the first, 0.298 for the second.

Going from TCCCTGAAAGTGACGGAGA to TCCCTTAAAGTGAGGGAGA, the TetR repression strength falls from 0.506 to 0.355.

First: TCCCCTGCAGTTGAAGAGA
Second: TCCCGCGAAGTGGCGGAGA
The TetR repression strength of the first is higher: 0.214 for the first, 0.168 for the second.

First: TCCCGGCGAGTTGGCGAGA
Second: TCCCTGTAAGTATGTGAGA
The TetR repression strength of the first is lower: 0.195 for the first, 0.214 for the second.

Going from TCCCGATGAGTATTCGAGA to TCCCTTTCAGTAATTGAGA, the TetR repression strength rises from 0.177 to 0.544.

Compared with TCCCCCGGAGTAAGAGAGA, TCCCCATTAGTCTATGAGA is higher in TetR repression strength: 0.0553 for the first, 0.187 for the second.

Going from TCCCGTCAAGTTATAGAGA to TCCCAATCAGTGTCTGAGA, the TetR repression strength rises from 0.233 to 0.513.

Compared with TCCCTGTGAGTCGGGGAGA, TCCCGCGGAGTTGGGGAGA is higher in TetR repression strength: 0.28 for the first, 0.299 for the second.

Compared with TCCCACTGAGTATTCGAGA, TCCCATTTAGTCGCGGAGA is higher in TetR repression strength: 0.224 for the first, 0.755 for the second.

First: TCCCCGCGAGTCCTCGAGA
Second: TCCCCACCAGTTATGGAGA
The TetR repression strength of the first is higher: 0.346 for the first, 0.321 for the second.

Compared with TCCCGATTAGTGGCTGAGA, TCCCGCATAGTAGGTGAGA is higher in TetR repression strength: 0.269 for the first, 0.317 for the second.

Going from TCCCAATCAGTTCTAGAGA to TCCCGTTCAGTTCACGAGA, the TetR repression strength falls from 0.396 to 0.159.

Compared with TCCCGGAGAGTTACTGAGA, TCCCGTTAAGTGAAGGAGA is lower in TetR repression strength: 0.419 for the first, 0.137 for the second.

First: TCCCTGACAGTGTTAGAGA
Second: TCCCGAGCAGTGGATGAGA
The TetR repression strength of the first is higher: 0.216 for the first, 0.154 for the second.

Going from TCCCGGAAAGTGGAGGAGA to TCCCTGGGAGTATAAGAGA, the TetR repression strength falls from 0.175 to 0.161.

Compared with TCCCCGATAGTACGCGAGA, TCCCTATGAGTGTGAGAGA is higher in TetR repression strength: 0.172 for the first, 0.252 for the second.
